The supplement of paper PMC4967469
A lower IC50 marks a more sensitive line; fits outside the tested doses are given as limits. AUC, from the same fit, is the share of area under the viability curve across the 256-fold dose range: 1 means no effect, lower means more sensitive. For part of these data: An inferred top dose comes from the curve model; the source does not state it.

Tests used:
Assay in all cases: Viability of human cancer cell lines after 72 h of drug (GDSC screen)
[1] = compound: CCc1c2c(nc3ccc(O)cc13)-c1cc3c(c(=O)n1C2)COC(=O)[C@]3(O)CC [SN-38]; conditions: top dose 0.05 µM; top dose inferred
Method: (§1)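 Human cancer cell lines in 384-well plates, medium with 10% serum, drug for 72 h over a 256-fold dose range (nine 2-fold or five 4-fold steps up to the top dose). Adherent lines were fixed and stained with the nucleic acid dye Syto60, suspension lines read with resazurin; signal relative to control wells, capped at 0 and 100%. One two-parameter sigmoid per drug and line, fitted in a mixed model over all curves with the slope shared within a line.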

[2] = compound: O=C(CCCCCCC(=O)Nc1ccccc1)NO [Vorinostat]; conditions: top dose 10 µM
Method: as §1

[3] = compound: CN(Cc1cnc2nc(N)nc(N)c2n1)c1ccc(C(=O)N[C@@H](CCC(=O)O)C(=O)O)cc1 [Methotrexate]; conditions: top dose 0.2 µM
Method: as §1

[4] = compound: CNC(=O)c1ccccc1Sc1ccc2c(/C=C/c3ccccn3)n[nH]c2c1 [Axitinib]; conditions: top dose 2 µM
Method: as §1

[5] = compound: CC(C)(C)c1nc(-c2cccc(NS(=O)(=O)c3c(F)cccc3F)c2F)c(-c2ccnc(N)n2)s1 [Dabrafenib]; conditions: top dose 10 µM
Method: as §1

Cell Line	AUC [1]	IC50 [1] [nM]	AUC [2]	IC50 [2] [nM]	AUC [3]	IC50 [3] [nM]	AUC [4]	IC50 [4] [nM]	AUC [5]	IC50 [5] [nM]
LS-513 (large intestine, adherent)	0.708	12.4	0.758	3600	0.94	> 200	0.936	> 2000	0.975	> 10000
NCI-H1092 (small cell lung carcinoma, suspension)	0.91	> 50	0.485	568	0.986	> 200	0.99	> 2000	0.987	> 10000
NCI-H2110 (non-small cell lung carcinoma, adherent)	0.687	10.6	0.759	3570	0.904	> 200	0.946	> 2000	0.978	> 10000
COLO-783 (melanoma, adherent)	0.858	38.6	0.671	1830	0.921	> 200	0.948	> 2000	0.225	102
RCC-JW (kidney, adherent)	0.444	2.19	0.731	2910	0.986	> 200	0.945	> 2000	0.926	> 10000
RERF-LC-KJ (lung adenocarcinoma, adherent)	0.968	> 50	0.795	4800	0.95	> 200	0.955	> 2000	0.983	> 10000
IA-LM (large cell lung carcinoma, adherent)	0.812	31	0.675	2060	0.983	> 200	0.952	> 2000	0.838	8020
NCI-H1693 (lung adenocarcinoma, adherent)	0.649	10.4	0.826	> 10000	0.966	> 200	0.957	> 2000	0.946	> 10000
TE-5 (oesophagus, adherent)	0.546	4.26	0.803	5850	0.968	> 200	0.974	> 2000	0.982	> 10000
P31-FUJ (acute myeloid leukaemia, suspension)	0.681	8.7	0.639	1370	0.935	> 200	0.956	> 2000	0.976	> 10000
CHL-1 (melanoma, adherent)	0.424	1.96	0.528	740	0.856	147	0.962	> 2000	0.565	931
LU-139 (small cell lung carcinoma, suspension)	0.877	> 50	0.546	865	0.859	> 200	0.966	> 2000	0.977	> 10000
FU-OV-1 (ovary, adherent)	0.879	> 50	0.841	> 10000	0.957	> 200	0.973	> 2000	0.962	> 10000
L-540 (Hodgkin lymphoma, suspension)	0.422	1.97	0.659	1630	0.416	7.55	0.915	> 2000	0.619	1280
MN-60 (B-cell leukaemia, suspension)	0.839	36.1	0.78	4270	0.988	> 200	0.987	> 2000	0.972	> 10000
NB(TU)1-10 (neuroblastoma, adherent)	0.984	> 50	0.761	3100	0.985	> 200	0.984	> 2000	0.993	> 10000
NCI-H1836 (small cell lung carcinoma, suspension)	0.956	> 50	0.814	6120	0.985	> 200	0.988	> 2000	0.986	> 10000
NCI-H1869 (lung squamous cell carcinoma, adherent)	0.903	> 50	0.86	> 10000	0.985	> 200	0.983	> 2000	0.981	> 10000
Detroit562 (head and neck, adherent)	0.716	12.4	0.777	3860	0.977	> 200	0.964	> 2000	0.966	> 10000
NCI-H2227 (small cell lung carcinoma, semi-adherent)	0.767	21	0.648	1700	0.85	182	0.908	> 2000	0.978	> 10000

Cell Line	AUC [1]	IC50 [1] [nM]	AUC [2]	IC50 [2] [nM]	AUC [3]	IC50 [3] [nM]	AUC [4]	IC50 [4] [nM]	AUC [5]	IC50 [5] [nM]
MES-SA (uterus, adherent)	0.696	10.1	0.755	2940	0.806	84.4	0.92	> 2000	0.942	> 10000
SNU-182 (liver, adherent)	0.852	41.5	0.702	2380	0.984	> 200	0.793	960	0.91	> 10000
GI-1 (glioma, adherent)	0.397	1.65	0.71	2370	0.986	> 200	0.95	> 2000	0.94	> 10000
HC-1 (hairy cell leukaemia, suspension)	0.473	2.64	0.858	7670	0.887	> 200	0.974	> 2000	0.904	> 10000
DOV13 (ovary, adherent)	0.615	6.81	0.725	3040	0.978	> 200	0.929	> 2000	0.56	938
EFO-21 (ovary, adherent)	0.763	26.1	0.935	> 10000	0.95	> 200	0.98	> 2000	0.965	> 10000
ATN-1 (T-cell lymphoblastic leukaemia, suspension)	0.451	2.33	0.396	331	0.473	10.6	0.746	598	0.951	> 10000
YKG-1 (glioma, adherent)	0.727	13.9	0.73	2840	0.986	> 200	0.959	> 2000	0.977	> 10000
NCI-H747 (large intestine, adherent)	0.922	> 50	0.865	> 10000	0.981	> 200	0.96	> 2000	0.921	> 10000
C2BBe1 (large intestine, adherent)	0.956	> 50	0.472	519	0.944	> 200	0.969	> 2000	0.984	> 10000
LCLC-103H (large cell lung carcinoma, adherent)	0.977	> 50	0.745	–	0.826	106	0.952	> 2000	0.99	> 10000
MZ1-PC (pancreas, adherent)	0.569	5.06	0.892	> 10000	0.979	> 200	0.972	> 2000	0.612	1370
VAL (B-cell lymphoma, suspension)	0.682	10.1	0.648	1610	0.827	122	0.944	> 2000	0.963	> 10000
SR (lymphoid neoplasm, suspension)	0.364	1.38	0.487	578	0.393	6.56	0.883	1770	0.913	> 10000
EoL-1-cell (haematopoietic neoplasm, suspension)	0.529	3.71	0.384	313	0.395	6.67	0.023	< 7.81	0.674	1790
NCI-H2342 (lung adenocarcinoma, adherent)	0.869	> 50	0.949	> 10000	0.986	> 200	0.981	> 2000	0.984	> 10000
WM35 (melanoma, adherent)	0.781	20.9	0.744	3140	0.694	43.9	0.936	> 2000	0.085	< 39.1
RCC-AB (kidney, adherent)	0.611	6.95	0.621	1490	0.981	> 200	0.974	> 2000	0.349	210
TE-12 (oesophagus, suspension)	0.903	> 50	0.745	3740	0.856	> 200	0.962	> 2000	0.961	> 10000
HCC1143 (breast, adherent)	0.844	> 50	0.738	4020	0.932	> 200	0.94	> 2000	0.975	> 10000
